Data on 32 sequences can be found in PMC12820563, “FoxP3 forms a head-to-head dimer in vivo and stabilizes its multimerization on adjacent microsatellites”.

This is one part of the list.

This test addresses T1, MBP-FoxP1dN (Mus musculus, UniProt P58462 326-579).
T1 sequence: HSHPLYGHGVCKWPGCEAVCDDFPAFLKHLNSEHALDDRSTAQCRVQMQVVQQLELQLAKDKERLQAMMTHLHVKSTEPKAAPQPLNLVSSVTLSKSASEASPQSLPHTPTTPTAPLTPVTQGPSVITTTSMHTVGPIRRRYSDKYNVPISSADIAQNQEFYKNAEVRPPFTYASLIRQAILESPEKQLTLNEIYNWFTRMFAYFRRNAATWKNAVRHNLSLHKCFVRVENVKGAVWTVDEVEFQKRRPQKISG
The test is described as follows: PD-seq (MBP pull-down with sequencing); 20 mM Tris-HCl pH 7.5, 100 mM NaCl, 1.5 mM MgCl2, 0.4 uM protein, 0.1 uM dsDNA library, 30 min, room temperature, amylose pull-down; high values mean tight binding. As to conditions: protein: recombinant; tags: His6-MBP; chain copies: 2; dsDNA, one strand shown. The essentials: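 Binding is given as reads-per-million enrichment, pull-down over input, with replicates pooled. The bait was an N-terminus-lacking mouse FoxP3 or FoxP1 fragment with a His6-MBP tag, expressed in E. coli and used at 0.4 µM with 0.1 µM Klenow-filled degenerate double-stranded DNA library for 30 min at room temperature in Tris pH 7.5 buffer with NaCl and MgCl2. Amylose resin pull-down with three washes was followed by proteinase K release, PCR barcoding and Illumina sequencing.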
Take “GATGATTGTTCTCCCAGCTGATGAATTTGTACTCTCGAGTAAACAAATTTTCCTAATCTTTCTGTTCAAGCGCCATCTAC”: the binding signal was 1.15 RPM ratio (pull-down/input).
With “GATGATTGTTCTCCCAGCTGATGAATTGTTCACATCGAGTAAACAAATTTTCCTAATCTTTCTGTTCAAGCGCCATCTAC” the figure was 1.19 RPM ratio (pull-down/input).
With “GATGATTGTTCTCCCAGCTGATGAATTTGAAGAATCGAGTAAACAAATTTTCCTAATCTTTCTGTTCAAGCGCCATCTAC” the figure was 0.925 RPM ratio (pull-down/input); with “GATGATTGTTCTCCCAGCTGATGAATTAATCCACTCGAGTAAACAAATTTTCCTAATCTTTCTGTTCAAGCGCCATCTAC”, 0.965 RPM ratio (pull-down/input); with “GATGATTGTTCTCCCAGCTGATGAATTTGTTAGCTCGAGTAAACAAATTTTCCTAATCTTTCTGTTCAAGCGCCATCTAC”, 1.36 RPM ratio (pull-down/input).
With “GATGATTGTTCTCCCAGCTGATGAATTGAAGTTATCGAGTAAACAAATTTTCCTAATCTTTCTGTTCAAGCGCCATCTAC” the figure was 0.989 RPM ratio (pull-down/input); with “GATGATTGTTCTCCCAGCTGATGAATTGGAATAGTCGAGTAAACAAATTTTCCTAATCTTTCTGTTCAAGCGCCATCTAC”, 0.865 RPM ratio (pull-down/input); with “GATGATTGTTCTCCCAGCTGATGAATTCCACTACTCGAGTAAACAAATTTTCCTAATCTTTCTGTTCAAGCGCCATCTAC”, 0.729 RPM ratio (pull-down/input).
Consider “GATGATTGTTCTCCCAGCTGATGAATTTCGTTAATCGAGTAAACAAATTTTCCTAATCTTTCTGTTCAAGCGCCATCTAC”, for which the binding signal was 0.996 RPM ratio (pull-down/input).
To “GATGATTGTTCTCCCAGCTGATGAATTCGCTTCCTCGAGTAAACAAATTTTCCTAATCTTTCTGTTCAAGCGCCATCTAC” belongs 0.851 RPM ratio (pull-down/input); to “GATGATTGTTCTCCCAGCTGATGAATTGGTTAAGTCGAGTAAACAAATTTTCCTAATCTTTCTGTTCAAGCGCCATCTAC”, 0.981 RPM ratio (pull-down/input); to “GATGATTGTTCTCCCAGCTGATGAATTTGGACTTTCGAGTAAACAAATTTTCCTAATCTTTCTGTTCAAGCGCCATCTAC”, 0.93 RPM ratio (pull-down/input).
Consider “GATGATTGTTCTCCCAGCTGATGAATTCACCGCTTCGAGTAAACAAATTTTCCTAATCTTTCTGTTCAAGCGCCATCTAC”, for which the binding signal is 0.855 RPM ratio (pull-down/input).
In the case of “GATGATTGTTCTCCCAGCTGATGAATTACATGGGTCGAGTAAACAAATTTTCCTAATCTTTCTGTTCAAGCGCCATCTAC”, the binding signal was 0.956 RPM ratio (pull-down/input).
To “GATGATTGTTCTCCCAGCTGATGAATTGGAGCATTCGAGTAAACAAATTTTCCTAATCTTTCTGTTCAAGCGCCATCTAC” belongs 1.03 RPM ratio (pull-down/input).
With “GATGATTGTTCTCCCAGCTGATGAATTACACACCTCGAGTAAACAAATTTTCCTAATCTTTCTGTTCAAGCGCCATCTAC” the figure was 1.24 RPM ratio (pull-down/input); with “GATGATTGTTCTCCCAGCTGATGAATTTATGATTTCGAGTAAACAAATTTTCCTAATCTTTCTGTTCAAGCGCCATCTAC”, 1.37 RPM ratio (pull-down/input).
To “GATGATTGTTCTCCCAGCTGATGAATTTGTAACATCGAGTAAACAAATTTTCCTAATCTTTCTGTTCAAGCGCCATCTAC” belongs 1.45 RPM ratio (pull-down/input).
As for “GATGATTGTTCTCCCAGCTGATGAATTATGCTTATCGAGTAAACAAATTTTCCTAATCTTTCTGTTCAAGCGCCATCTAC”, the binding signal was 1.63 RPM ratio (pull-down/input).
With “GATGATTGTTCTCCCAGCTGATGAATTCATCCTTTCGAGTAAACAAATTTTCCTAATCTTTCTGTTCAAGCGCCATCTAC” the figure was 0.917 RPM ratio (pull-down/input); with “GATGATTGTTCTCCCAGCTGATGAATTAGATTGCTCGAGTAAACAAATTTTCCTAATCTTTCTGTTCAAGCGCCATCTAC”, 0.987 RPM ratio (pull-down/input).
Consider “GATGATTGTTCTCCCAGCTGATGAATTGGCTCCGTCGAGTAAACAAATTTTCCTAATCTTTCTGTTCAAGCGCCATCTAC”, for which the binding signal is 0.78 RPM ratio (pull-down/input).
In the case of “GATGATTGTTCTCCCAGCTGATGAATTGTATATATCGAGTAAACAAATTTTCCTAATCTTTCTGTTCAAGCGCCATCTAC”, the binding signal was 1.6 RPM ratio (pull-down/input).
Consider “GATGATTGTTCTCCCAGCTGATGAATTGTAATGTTCGAGTAAACAAATTTTCCTAATCTTTCTGTTCAAGCGCCATCTAC”, for which the binding signal was 1.05 RPM ratio (pull-down/input).
With “GATGATTGTTCTCCCAGCTGATGAATTGATTGTATCGAGTAAACAAATTTTCCTAATCTTTCTGTTCAAGCGCCATCTAC” the figure was 1.54 RPM ratio (pull-down/input).
To “GATGATTGTTCTCCCAGCTGATGAATTGGGTGAATCGAGTAAACAAATTTTCCTAATCTTTCTGTTCAAGCGCCATCTAC” belongs 0.922 RPM ratio (pull-down/input).
Take “GATGATTGTTCTCCCAGCTGATGAATTCCCCGCTTCGAGTAAACAAATTTTCCTAATCTTTCTGTTCAAGCGCCATCTAC”: the binding signal is 0.77 RPM ratio (pull-down/input).
To “GATGATTGTTCTCCCAGCTGATGAATTCGGATAATCGAGTAAACAAATTTTCCTAATCTTTCTGTTCAAGCGCCATCTAC” belongs 1.08 RPM ratio (pull-down/input); to “GATGATTGTTCTCCCAGCTGATGAATTCAGGTGCTCGAGTAAACAAATTTTCCTAATCTTTCTGTTCAAGCGCCATCTAC”, 0.812 RPM ratio (pull-down/input); to “GATGATTGTTCTCCCAGCTGATGAATTACTCAACTCGAGTAAACAAATTTTCCTAATCTTTCTGTTCAAGCGCCATCTAC”, 1.08 RPM ratio (pull-down/input).
On to “GATGATTGTTCTCCCAGCTGATGAATTGCCTCATTCGAGTAAACAAATTTTCCTAATCTTTCTGTTCAAGCGCCATCTAC”, for which the binding signal was 1.05 RPM ratio (pull-down/input).
With “GATGATTGTTCTCCCAGCTGATGAATTGACGAAATCGAGTAAACAAATTTTCCTAATCTTTCTGTTCAAGCGCCATCTAC” the figure was 1.25 RPM ratio (pull-down/input).
